Data reported in the supplement of paper PMC10126150.
Sequences with one replicate were seen in a single cluster, so their values are uncertain.

Test system: ATP
Assay: switch fluorescence ratio, 500 uM ATP over buffer (Cy3 cluster intensity, sum of 5 cycles each) (fold (ratio)); higher = stronger signal-on switching upon ATP binding; sequences stand for … in TCGTCGGCAGCGTCAGATGTGTATAAGAGACAGTTTTTTTTTTTTTTTTTTTTTTTTT…TC
Conditions: aptamer strand: ATP DNA aptamer (quencher-CACCTGGGGGAGTATTGCGGAGGAAGG + anchor), 100 nM annealed; ATP concentration: 500 uM; one replicate
In short: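 Cy3-labelled switching-strand clusters on a modified Illumina MiSeq flow-cell were annealed to 100 nM quencher-labelled ATP aptamer, imaged in selection buffer, then imaged after 15 min with 500 uM ATP at 22 °C. Five buffer/ATP cycles ran, with NaOH stripping and re-annealing between them. The fluorescence ratio is summed target-cycle over summed buffer-cycle Cy3 intensity per cluster, averaged per switch-domain sequence. Clusters outside 100-1000 RFU were excluded.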
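Also: ATP exposure 15 min at 22 °C before imaging.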

In the case of CTGCCATAAC, the switch fluorescence ratio is reported as 2.54.

Work on ATGTGACTAC yielded a switch fluorescence ratio of 0.995.

For AGCTCACGCA, the switch fluorescence ratio was 1.17.

TTTAATCTTG was tested, and the switch fluorescence ratio was 1.01.

With TTTCGAATTA the switch fluorescence ratio was 1.04.

TCTTTAAACG was tested, and the switch fluorescence ratio was 0.994.

TCTCGGTTGT showed a switch fluorescence ratio of 1.01.

TAATGCCAGC gave a switch fluorescence ratio of 0.981.

Sequence TTCATCAGGG has a switch fluorescence ratio of 1.04.

In the case of GAGGTGCGG, the switch fluorescence ratio is reported as 0.975.

Sequence TGGTGCAAGG has a switch fluorescence ratio of 1.01.

AATTTACCT showed a switch fluorescence ratio of 1.18.

CTTAGGAGGA was tested, and the switch fluorescence ratio was 1.05.

In the case of CGAAAGGTGG, the switch fluorescence ratio is reported as 1.

With CTCATTCGTA the switch fluorescence ratio was 0.991.

CAATTACCTT showed a switch fluorescence ratio of 1.05.

For ACTCGTCTTA, the switch fluorescence ratio was 0.997.

With CTGATCGTTA the switch fluorescence ratio was 1.08.

AAGTGGGAGT gave a switch fluorescence ratio of 0.946.

CAGCGCCCGC gave a switch fluorescence ratio of 1.

For CGTGAGTCTT, the switch fluorescence ratio was 1.01.

For ACCTGCATTC, the switch fluorescence ratio was 3.6.

For ATTGGCTACC, the switch fluorescence ratio was 0.966.

ATTGGACGT gave a switch fluorescence ratio of 1.01.

With AGCATAGGGC the switch fluorescence ratio was 1.07.

For TATTCTCGGG, the switch fluorescence ratio was 1.

In the case of TGCTTCCTGG, the switch fluorescence ratio is reported as 1.11.

For TCAGTCACGA, the switch fluorescence ratio was 1.02.

Work on AACTAAATTG yielded a switch fluorescence ratio of 0.989.

Sequence ATACCTACTA has a switch fluorescence ratio of 1.23.

GCTCTCTTGA showed a switch fluorescence ratio of 1.02.

Work on ATCTTTTCTA yielded a switch fluorescence ratio of 1.01.

With AAGAAATAGT the switch fluorescence ratio was 1.02.

For TAACAAATGT, the switch fluorescence ratio was 0.987.

CGCAAACGTT gave a switch fluorescence ratio of 1.2.

ACCTGAGGGT was tested, and the switch fluorescence ratio was 1.06.

CACGGGCATT was tested, and the switch fluorescence ratio was 1.09.

With AAATCCAGAA the switch fluorescence ratio was 1.

TTTTACCTCT gave a switch fluorescence ratio of 1.28.

GAGCGAACCT showed a switch fluorescence ratio of 1.63.

For CTGGACTGTT, the switch fluorescence ratio was 0.965.

GCACTGGGAA gave a switch fluorescence ratio of 1.

Sequence CGGACACTGG has a switch fluorescence ratio of 1.05.

AGGATGCAAT gave a switch fluorescence ratio of 1.1.

For GATAGAGGCA, the switch fluorescence ratio was 0.987.

TTTACAGCCA was tested, and the switch fluorescence ratio was 1.01.

Sequence GGTCCATG has a switch fluorescence ratio of 1.01.

Sequence GTTAGTGTTC has a switch fluorescence ratio of 1.1.

Work on CGCATTCCGA yielded a switch fluorescence ratio of 1.33.

In the case of TGGGTTCACC, the switch fluorescence ratio is reported as 0.968.

In the case of ATGAGCGCTA, the switch fluorescence ratio is reported as 1.02.

GTCTACTAGA gave a switch fluorescence ratio of 1.01.

With CGATCATTTC the switch fluorescence ratio was 0.997.

GGGTGTGCCT gave a switch fluorescence ratio of 0.99.

With GAGGAAGGCG the switch fluorescence ratio was 1.04.

Sequence TCAAGGTCTG has a switch fluorescence ratio of 1.

CGATTAGCCT gave a switch fluorescence ratio of 1.08.

CGGCACCATG gave a switch fluorescence ratio of 0.993.

Sequence TAGTGGGGAT has a switch fluorescence ratio of 1.03.

GTCCGTTTTA was tested, and the switch fluorescence ratio was 0.984.

Sequence CGCACAACGG has a switch fluorescence ratio of 1.2.

Work on CTCCGAGGAG yielded a switch fluorescence ratio of 1.02.

With AGACGAGAGC the switch fluorescence ratio was 1.01.

In the case of GGAGAATGAA, the switch fluorescence ratio is reported as 1.02.

Work on CAAGGTTCTG yielded a switch fluorescence ratio of 0.981.

Work on CGATTATGAC yielded a switch fluorescence ratio of 1.02.

With ACCTCCTTGC the switch fluorescence ratio was 1.85.

In the case of TTTTGCTAGG, the switch fluorescence ratio is reported as 0.98.

ATTAAGTTAA was tested, and the switch fluorescence ratio was 1.01.

With GTAGGACCGG the switch fluorescence ratio was 0.979.

GCGGAATCTG was tested, and the switch fluorescence ratio was 1.03.

In the case of CGGTTTAACG, the switch fluorescence ratio is reported as 0.989.

GCCGCTGCTA showed a switch fluorescence ratio of 1.05.

In the case of AACTGGAAGA, the switch fluorescence ratio is reported as 0.958.

AAGAGTAAAG gave a switch fluorescence ratio of 0.96.

With ATCCTACTCG the switch fluorescence ratio was 1.02.

Work on TAGTAATCCA yielded a switch fluorescence ratio of 1.02.

Work on GTCGCTAAGA yielded a switch fluorescence ratio of 0.97.

TTAAGTTCGC gave a switch fluorescence ratio of 0.971.

Sequence GACGCGGCTG has a switch fluorescence ratio of 1.

Sequence TTTAAACAGC has a switch fluorescence ratio of 0.987.

TGTTAAAACT showed a switch fluorescence ratio of 1.02.

For ACTTGCATGA, the switch fluorescence ratio was 1.07.

Work on TTCCTGATGG yielded a switch fluorescence ratio of 0.974.

In the case of ATCAGGATGA, the switch fluorescence ratio is reported as 0.946.

ATTGTTTCAC gave a switch fluorescence ratio of 1.01.

Work on GAGACCCTCG yielded a switch fluorescence ratio of 0.97.

For CCAGTATGG, the switch fluorescence ratio was 1.01.

ATCAGTTGGG gave a switch fluorescence ratio of 0.982.

GCGGGAACCT showed a switch fluorescence ratio of 1.5.

TACACTTCCA showed a switch fluorescence ratio of 1.09.

For TGTAGTGTAG, the switch fluorescence ratio was 1.03.

Sequence GGTAGAATC has a switch fluorescence ratio of 1.02.

For GTGAGCCCTT, the switch fluorescence ratio was 1.01.

With AAGCATTGAA the switch fluorescence ratio was 0.99.

Sequence GGTTTCTGGT has a switch fluorescence ratio of 0.982.

TCTGTGTATC gave a switch fluorescence ratio of 0.974.

AAACAGGTTA was tested, and the switch fluorescence ratio was 1.01.

In the case of GCCGATATCA, the switch fluorescence ratio is reported as 1.04.

Sequence AAGGCCCTGT has a switch fluorescence ratio of 1.03.

For CGCTACACTG, the switch fluorescence ratio was 1.14.

With TTAGAAAACA the switch fluorescence ratio was 1.03.

Sequence CGCCGTAAAA has a switch fluorescence ratio of 1.02.

Sequence CGAACACAGC has a switch fluorescence ratio of 1.16.

Sequence GAGGAGTAAC has a switch fluorescence ratio of 0.981.

In the case of ACTCGCAACT, the switch fluorescence ratio is reported as 4.11.

In the case of CTTCGGTCAC, the switch fluorescence ratio is reported as 1.42.

CGGAATACAT gave a switch fluorescence ratio of 1.41.

With TACCCGTCGC the switch fluorescence ratio was 1.1.

In the case of TTGGGTAAAA, the switch fluorescence ratio is reported as 0.955.

Work on CAGGGAATTC yielded a switch fluorescence ratio of 1.04.

Work on TTACCATGGT yielded a switch fluorescence ratio of 1.01.

Sequence ATTGAATCGT has a switch fluorescence ratio of 1.02.

Work on GAGGTTTAAA yielded a switch fluorescence ratio of 0.985.

GACTCGTATG showed a switch fluorescence ratio of 1.

Work on CGCAGCAAGA yielded a switch fluorescence ratio of 4.46.

Sequence CCTGTGTACT has a switch fluorescence ratio of 1.14.

GCCGTGTGGT was tested, and the switch fluorescence ratio was 0.988.

In the case of GTCCGTCGCG, the switch fluorescence ratio is reported as 1.06.

GCGAAATAA gave a switch fluorescence ratio of 1.05.

ATCACCATGG was tested, and the switch fluorescence ratio was 1.03.

TACAATTCTT was tested, and the switch fluorescence ratio was 0.965.

AGTCCGGGCG gave a switch fluorescence ratio of 0.998.

For AACACGCT, the switch fluorescence ratio was 1.01.

For GCGGTTACTT, the switch fluorescence ratio was 0.993.

Sequence ATGAATGGGA has a switch fluorescence ratio of 0.949.

GTTGAGTGGT was tested, and the switch fluorescence ratio was 0.973.

GTCCGTGGCC showed a switch fluorescence ratio of 1.05.

ACAGAGTGTG gave a switch fluorescence ratio of 0.99.

For TACATGCTGG, the switch fluorescence ratio was 0.964.

ACTTGACTTT gave a switch fluorescence ratio of 1.08.

GTAGCCAGGT was tested, and the switch fluorescence ratio was 1.13.

Sequence GCTTCAGTGT has a switch fluorescence ratio of 1.01.

With GCGATATGGG the switch fluorescence ratio was 1.06.

Work on GTTCGAATAT yielded a switch fluorescence ratio of 0.99.

In the case of CGGCACCAGG, the switch fluorescence ratio is reported as 4.41.

For TGCAGTTTTC, the switch fluorescence ratio was 1.08.

ATAAAGCACA showed a switch fluorescence ratio of 1.14.

With GTTTGAGC the switch fluorescence ratio was 1.04.

AACCCCTTAT was tested, and the switch fluorescence ratio was 0.999.

Work on TAATGAGTTC yielded a switch fluorescence ratio of 1.01.

CGCGGGGCT was tested, and the switch fluorescence ratio was 1.16.

ACATCTAGG gave a switch fluorescence ratio of 1.05.

TAATCCCGAT was tested, and the switch fluorescence ratio was 0.936.

Sequence AGCTCACGTC has a switch fluorescence ratio of 1.12.

CAGGGCAAAA gave a switch fluorescence ratio of 1.04.

CATGCTGTTT was tested, and the switch fluorescence ratio was 0.997.

Sequence GCAAATTCA has a switch fluorescence ratio of 1.06.

In the case of AGTCGGCTTC, the switch fluorescence ratio is reported as 1.02.

In the case of AGGCGCGCGA, the switch fluorescence ratio is reported as 1.01.

GGTCCAAGAC showed a switch fluorescence ratio of 1.1.

CGTGTTCCTT was tested, and the switch fluorescence ratio was 1.01.

AAATAACGCG gave a switch fluorescence ratio of 0.946.

Sequence TGCCCTTCGC has a switch fluorescence ratio of 1.09.

Sequence TACGGAGTTG has a switch fluorescence ratio of 1.01.

For AAGCGGTTTA, the switch fluorescence ratio was 0.995.

With GCCACCGATA the switch fluorescence ratio was 1.1.

In the case of TTCGCTTTTG, the switch fluorescence ratio is reported as 0.958.

GGTCCGGG showed a switch fluorescence ratio of 1.01.

Work on TAGAGTTCAG yielded a switch fluorescence ratio of 1.

For TCGTAGTCAT, the switch fluorescence ratio was 0.999.

With GGTAAGGAGG the switch fluorescence ratio was 0.946.

In the case of GATGGGGTTG, the switch fluorescence ratio is reported as 1.

GCAAGGTACA gave a switch fluorescence ratio of 1.1.

For AACTGTCTTA, the switch fluorescence ratio was 0.978.

AGTAAGGGCC was tested, and the switch fluorescence ratio was 1.04.

With AGGTTAAGGC the switch fluorescence ratio was 1.01.

For TGGTTTAAGC, the switch fluorescence ratio was 0.975.

GATAGCTATA showed a switch fluorescence ratio of 1.02.

With GTAATACGAG the switch fluorescence ratio was 3.14.

With ATCCGCTGGT the switch fluorescence ratio was 1.46.

In the case of AAAAGATACC, the switch fluorescence ratio is reported as 1.07.

Sequence TAATGTTACC has a switch fluorescence ratio of 1.04.

Sequence GAGGTGCTTG has a switch fluorescence ratio of 1.04.

With AGATGTTCCA the switch fluorescence ratio was 0.998.

For ATTGCCATGA, the switch fluorescence ratio was 0.959.

Sequence ATTCCTTTAA has a switch fluorescence ratio of 0.987.

For GGAATTAGAC, the switch fluorescence ratio was 0.979.

For ACATAGGACA, the switch fluorescence ratio was 1.04.

TACAAATACT was tested, and the switch fluorescence ratio was 3.75.

Work on CGTTGCGGGC yielded a switch fluorescence ratio of 1.12.

Work on CGTCTTACCT yielded a switch fluorescence ratio of 1.07.

TCCCACTATA was tested, and the switch fluorescence ratio was 1.1.

With TCAACTTCA the switch fluorescence ratio was 1.04.

In the case of AAGAGGAGTA, the switch fluorescence ratio is reported as 1.01.

Work on TTGGTATCGA yielded a switch fluorescence ratio of 0.956.

In the case of TGTTAGCCTA, the switch fluorescence ratio is reported as 0.996.

Sequence TGGAAGCTAT has a switch fluorescence ratio of 1.02.

TCTAAGGAAA gave a switch fluorescence ratio of 1.03.

CTGCGATGGG was tested, and the switch fluorescence ratio was 1.11.

TGAAGAGTGG was tested, and the switch fluorescence ratio was 0.952.

Work on AACGCATCGA yielded a switch fluorescence ratio of 1.17.

For CCGCGGTTGT, the switch fluorescence ratio was 1.15.

In the case of TTTCATGCTC, the switch fluorescence ratio is reported as 1.

Sequence CGTGGCGGTC has a switch fluorescence ratio of 0.913.

For ATGTAGGAG, the switch fluorescence ratio was 0.971.

With TAGTCTGTAC the switch fluorescence ratio was 1.14.

In the case of TTCAACTCGG, the switch fluorescence ratio is reported as 1.02.

CGGTTGTTAG showed a switch fluorescence ratio of 1.01.

Work on GGTTTAGTGC yielded a switch fluorescence ratio of 0.985.
